From PubChem BioAssay AID686978 (National Center for Advancing Translational Sciences (NCATS), 2013)
In all, about 420,000 compounds went through this assay and about 64,000 (15%) were called active. The shares of active, inactive and inconclusive entries below differ from those in the screen. Calls come from the whole dose curve; as a rule, active = well fitted inhibition curve with a large enough effect; inconclusive = small, poorly fitted or top-dose-only effect; inactive = flat fitted curve, though single readings scatter. No potency is given beside an inconclusive call; the fits are too rough.

experiment: qHTS for Inhibitors of human tyrosyl-DNA phosphodiesterase 1 (TDP1): qHTS in cells in absence of CPT; details: DT40 Tdp1-/- hTDP1 cells, no CPT, ATP luminescence, 48 h; activity change, negative = growth inhibition: at 46.2 µM (top of the series) unless noted; note: nearly all actives have a fitted effect of over 55% in size
Method in brief: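 A cellular qHTS used chicken DT40 cells lacking endogenous Tdp1 but carrying stably transfected human TDP1. Compounds were applied without camptothecin, and cell growth kinetics were judged by ATP-dependent luminescence after ≥48 hr.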
% is set by controls: 0 for no effect and ±100 for the full control effect; potency is the fitted concentration of half-maximal effect; tags give direction and shape of the fitted curve.

Question: Which “activity change, negative = growth inhibition” value does the source give for `Cc1ccccc1OCC(=O)Nc1ccc2c(c1)ncn2C` here?
Answer: inactive: -1.77%

Question: Which Potency does the source give for `O=C(Nc1cccc(Cl)c1N1CCCC1)c1ccco1` here?
Answer: inconclusive [inhibitor, partial curve]

Question: Which Potency does the source give for `O=C(c1ccc2c(c1)N(Cc1ccccc1F)C(=O)c1ccccc1S2(=O)=O)N1CCCCC1` here?
Answer: active: 16.4 µM

Question: With `C/C(=N\NC(=O)c1cc(-c2ccc(C)s2)[nH]n1)c1ccncc1` as the molecule, how does the Potency read?
Answer: inconclusive [inhibitor, partial curve, poor fit]

Question: For `O=C(c1ccc(N2CCOCC2)c([N+](=O)[O-])c1)N1CCN(Cc2ccccc2)CC1`, which Potency is on record?
Answer: inconclusive [inhibitor, single point]

Question: With `COc1ccc(OC)c(NC(=O)C2CCCN(S(=O)(=O)c3cccc4cccnc34)C2)c1` (centres undefined) as the molecule, how does the Potency read?
Answer: active: 13 µM

Question: Which Potency does the source give for `C[C@]12C[C@H](O)[C@H]3[C@@H](CCC4=CC(=O)CC[C@@]43C)[C@@H]1CC[C@@H]2C(=O)CO` here?
Answer: inconclusive [inhibitor, partial curve, poor fit]

Question: What about the activity change, negative = growth inhibition of the same molecule?
Answer: inconclusive: -30.3% [inhibitor]

Question: Which Potency does the source give for `CCn1cc(/C=C(\NC(=O)c2cc(OC)c(OC)c(OC)c2)C(=O)N2CCOCC2)c2ccccc21` here?
Answer: inconclusive [inhibitor, single point]

Question: With `CCc1ccc(-n2c(SCc3ccccc3F)nc3[nH]ncc3c2=O)cc1` as the molecule, how does the Potency read?
Answer: active: 16.4 µM

Question: With `O=C(CNC(=O)c1ccc(S(=O)(=O)N2CCCC2)cc1)N/N=C/c1c(Cl)cccc1Cl` as the molecule, how does the Potency read?
Answer: inconclusive [inhibitor, single point]

Question: Which “activity change, negative = growth inhibition” value does the source give for `CC(C)OCCCNC(=O)C1CCC(CNS(=O)(=O)c2ccccc2)CC1` (centres undefined) here?
Answer: inactive: -8.48%

Question: With `CCCN1C(=O)c2ccccc2NC1c1ccc(OC)c(COc2ccc([N+](=O)[O-])c(C)c2)c1` (centres undefined) as the molecule, how does the Potency read?
Answer: active: 17.8 µM

Question: With `O=C1OC(Nc2ccc(Br)cn2)c2ccccc21` (centres undefined) as the molecule, how does the “activity change, negative = growth inhibition” value read?
Answer: inactive: -0.703%

Question: With `Fc1ccc(-c2nc3ccc(Br)cn3c2Cc2cccc(F)c2)cc1` as the molecule, how does the Potency read?
Answer: inconclusive [inhibitor, single point]

Question: For `COc1cc(OC)cc(-c2nc(-c3ccccc3OC)no2)c1`, which Potency is on record?
Answer: inconclusive [inhibitor, single point]

Question: Which Potency does the source give for `CCCC1CCC(c2ccc(C(=O)NN)cc2)CC1` (centres undefined) here?
Answer: active: 29.1 µM

Question: Which Potency does the source give for `N#C/C(=C\c1c(N(Cc2ccccc2)Cc2ccccc2)nc2ccccn2c1=O)C(N)=O` here?
Answer: inconclusive [inhibitor, single point]

Question: For `O=C1c2[nH]nc(-c3ccccc3O)c2C(c2ccc(Cl)cc2)N1Cc1ccco1` (centres undefined), which Potency is on record?
Answer: inconclusive [inhibitor, single point]

Question: Which Potency does the source give for `CCOC(=O)c1[nH]c2ccc(F)cc2c1NC(=O)CN1CCN(C/C=C/c2ccccc2)CC1` here?
Answer: inconclusive [inhibitor, single point]

Question: Which Potency does the source give for `C=CCNC(=S)N(CC)c1cccc2ccccc12` here?
Answer: inconclusive [inhibitor, single point]

Question: With `CCc1ccccc1N1C(=O)C2CC(C)=C(C)CC2C1=O` (centres undefined) as the molecule, how does the Potency read?
Answer: inconclusive [inhibitor, single point]

Question: Which “activity change, negative = growth inhibition” value does the source give for `COc1ccccc1-c1ccc(SCC(=O)Nc2cc(C)on2)nn1` here?
Answer: inactive: -14.9%

Question: With `CC1(C)Cc2ccccc2-c2nnc(SCc3ccccc3)n21` as the molecule, how does the Potency read?
Answer: inconclusive [inhibitor, partial curve]

Question: For `COc1ccccc1-c1nc2ccccc2nc1-c1ccccc1OC`, which Potency is on record?
Answer: inconclusive [inhibitor, single point]

Question: For `CCc1ccc(N2CCN(C(=O)N3CCOCC3)CC2)cc1`, which “activity change, negative = growth inhibition” value is on record?
Answer: inactive: -15.1%

Question: Which Potency does the source give for `Cc1sc2nc(CSCC(=O)Nc3cc(F)ccc3F)[nH]c(=O)c2c1C` here?
Answer: inconclusive [inhibitor, single point]

Question: What does the source list for `Cc1ccc(NC(=O)c2cccc(N(C)C)c2)cc1NC(=O)c1ccc(O)cc1`?
Answer: Potency: inconclusive [inhibitor, partial curve, poor fit]; activity change, negative = growth inhibition: inconclusive: -33.9% [inhibitor]

Question: With `O=C(CN1C(=O)c2ccccc2C1=O)NCC(=O)OCC(=O)c1ccc(Cl)cc1` as the molecule, how does the “activity change, negative = growth inhibition” value read?
Answer: inactive: 7.66%

Question: For `COc1cccc(CNc2nc3cc(C(C)=C(C)C)sc3c(=O)n2C)c1`, which Potency is on record?
Answer: inconclusive [inhibitor, single point]

Question: For `C[C@@H]1CN([C@H](C)CO)C(=O)c2cc(Br)cnc2O[C@H]1CN(C)C`, which “activity change, negative = growth inhibition” value is on record?
Answer: inactive: -23.6%

Question: Which “activity change, negative = growth inhibition” value does the source give for `Cc1cccc(C(=O)OC(C)CN2C(C)CCCC2C)c1` (centres undefined) here?
Answer: inactive: -0.741%

Question: Which Potency does the source give for `c1ccc2c(NC3CCCC3)nnc(NC3CCCC3)c2c1` here?
Answer: active: 16.4 µM

Question: With `Cc1ccc2nc(N3CCN(Cc4nnnn4Cc4ccccc4)CC3)c(C#N)cc2c1` as the molecule, how does the Potency read?
Answer: inconclusive [inhibitor, single point]

Question: With `COc1ccc2c(c1)C(=O)Nc1cc(Cl)ccc1N2` as the molecule, how does the Potency read?
Answer: inconclusive [inhibitor, single point]

Question: For `COc1cc(C=C(OC(C)=O)c2ccc3c(c2)OCO3)cc(OC)c1OC`, which Potency is on record?
Answer: inconclusive [inhibitor, single point]

Question: For `Cc1cc(C)cc(OCC(=O)NNC(=O)c2cc3ccccc3oc2=O)c1`, which Potency is on record?
Answer: inconclusive [inhibitor, partial curve]

Question: For `Cc1ccc(Nc2nc3c([nH]2)c(=O)n(C)c(=O)n3C)cc1`, which activity change, negative = growth inhibition is on record?
Answer: inconclusive: -30.9% [inhibitor]

Question: For `COc1cc2oc(=O)cc(-c3ccc(-c4ccc(O)cc4)cc3)c2c(OC)c1OC`, which Potency is on record?
Answer: active: 18.4 µM

Question: Which Potency does the source give for `Cc1cc(C)cc(NS(=O)(=O)c2c(C(=O)N3CCCCCC3)c(C)n(C)c2C)c1` here?
Answer: inconclusive [inhibitor, single point]

Question: For `CC(=O)Nc1ccc(S(=O)(=O)N2CCC3(CC2)CC(=O)c2ccccc2O3)cc1`, which Potency is on record?
Answer: inconclusive [inhibitor, single point]

Question: With `CCN(CC)C(=O)CSc1nc2ccc(NC(=O)CSc3nnc(N)s3)cc2s1` as the molecule, how does the Potency read?
Answer: inconclusive [inhibitor, partial curve]

Question: With `O=C(c1ccc(C(F)(F)F)cc1)N1CCC(=O)N(C(COCc2ccccc2)Cc2ccccc2)CC1` (centres undefined) as the molecule, how does the Potency read?
Answer: active: 20.6 µM

Question: With `CCCCCN(C(=O)CCC(=O)OCC(=O)Nc1cccc(SC)c1)c1c(N)n(CCCC)c(=O)[nH]c1=O` as the molecule, how does the “activity change, negative = growth inhibition” value read?
Answer: inactive: -15.6%

Question: Which Potency does the source give for `O=C(N/N=C/c1cn(Cc2ccccc2)c2ccccc12)c1cccnc1` here?
Answer: inconclusive [inhibitor, single point]

Question: Which Potency does the source give for `COc1ccccc1C(=O)COC(=O)c1ccccc1OCC(=O)Nc1ccc(SC(F)F)cc1` here?
Answer: inconclusive [inhibitor, partial curve]

Question: With `CC(=O)N1N=C(c2ccc(C)cc2)CC1c1ccco1` (centres undefined) as the molecule, how does the Potency read?
Answer: inconclusive [inhibitor, single point]

Question: For `COC(=O)C1=C(O)/C(=C\c2cc(C)n(-c3ccc(F)cc3)c2C)N=C1C`, which Potency is on record?
Answer: inconclusive [inhibitor, single point]

Question: For `O=C(O)c1ccc(C2CCCCC2)cn1`, which Potency is on record?
Answer: inconclusive [inhibitor, single point]

Question: Which Potency does the source give for `CC(C)Cn1c(SCC(=O)NCc2ccc(Cl)cc2)nnc1-c1cccc(S(=O)(=O)N2CCOCC2)c1` here?
Answer: active: 20.6 µM

Question: Which Potency does the source give for `O=C(COC(=O)c1ccc2c(c1)C(=O)N(c1cccc3ncccc13)C2=O)c1ccc(Cl)cc1` here?
Answer: inconclusive [inhibitor, single point]

Question: With `CCc1c(O)nc(SCC(=O)Nc2ccccc2C)n(-c2ccc(C)cc2)c1=O` as the molecule, how does the Potency read?
Answer: inconclusive [inhibitor, single point]

Question: Which “activity change, negative = growth inhibition” value does the source give for `COc1ccc(S(=O)(=O)Nc2ccccn2)cc1` here?
Answer: inactive: 3.88%

Question: Which “activity change, negative = growth inhibition” value does the source give for `COc1nc(Nc2ccccc2F)nc(OC)n1` here?
Answer: inactive: 4.3%

Question: Which “activity change, negative = growth inhibition” value does the source give for `CCCCn1c(N)c(N(CCOC)C(=O)CSc2nc3ccc(C)cc3[nH]2)c(=O)[nH]c1=O` here?
Answer: inactive: 4%

Question: Which Potency does the source give for `CC1Cc2ccccc2N1CC(=O)Nc1cc(S(=O)(=O)N2CCOCC2)ccc1Cl` (centres undefined) here?
Answer: active: 23.1 µM

Question: Which Potency does the source give for `O=C(CCC1N=C2c3ccccc3N=C(SCC(=O)Nc3ccccc3F)N2C1=O)NCc1ccccc1` (centres undefined) here?
Answer: inconclusive [inhibitor, single point]

Question: For `CCc1nc2c(OCCOc3ccc(F)cc3)cccn2c1N(C)C(=O)c1ccccc1F`, which Potency is on record?
Answer: inconclusive [inhibitor, single point]

Question: For `COc1ccc(S(=O)(=O)N2CCC(C(=O)NC3CCCCC3C)CC2)cc1` (centres undefined), which Potency is on record?
Answer: inconclusive [inhibitor, single point]

Question: With `Nc1ccc(CCC(=O)N2CCCC2)cc1` as the molecule, how does the “activity change, negative = growth inhibition” value read?
Answer: inactive: -6.6%

Question: For `O=C(NC(c1ccccc1)c1ccc2ccccc2n1)C1CCN(Cc2ccc(Oc3ccccc3)cc2)CC1` (centres undefined), which Potency is on record?
Answer: inconclusive [inhibitor, single point]

Question: For `Cc1ccc(NC(=O)Cn2c(=O)c(C)nc3ccccc32)cc1`, which “activity change, negative = growth inhibition” value is on record?
Answer: inactive: -7.67%

Question: For `COc1ccc(S(=O)(=O)Nc2cccc3c2O[C@H](CN(C)S(=O)(=O)c2cccs2)[C@@H](C)CN([C@H](C)CO)C3=O)cc1`, which “activity change, negative = growth inhibition” value is on record?
Answer: inactive: -11.1%

Question: Which Potency does the source give for `COc1ccc(NC(=O)c2cc(C3CCCCN3S(=O)(=O)Cc3ccccc3)on2)cn1` (centres undefined) here?
Answer: inconclusive [inhibitor, single point]

Question: With `Cc1ccc(CNC(=O)c2cc3sccc3n2Cc2ccc(Cl)cc2)cc1` as the molecule, how does the Potency read?
Answer: inconclusive [inhibitor, single point]

Question: Which Potency does the source give for `COc1ccc(CNc2cccc3[nH]c(C(F)(F)F)nc23)cc1OC` here?
Answer: active: 20.6 µM

Question: With `Cc1ccc(S(=O)(=O)N(C)c2ccc(C(=O)NCC(c3cccs3)N3CCOCC3)cc2)cc1` (centres undefined) as the molecule, how does the Potency read?
Answer: inconclusive [inhibitor, partial curve]

Question: For `CCNS(=O)(=O)c1c(C)cc(C)c(N(C)S(=O)(=O)c2ccccc2)c1C`, which Potency is on record?
Answer: inconclusive [inhibitor, partial curve, poor fit]
